About 310 (0.076%) of roughly 410,000 compounds were called active. Inconclusive means that the source gave no clear call. Such entries were picked first, then a sample of the others. Calls follow the shape of the dose curve; as a rule, active = well fitted curve in the direction sought with a large enough effect; inconclusive = small, poorly fitted or top-dose-only effect; inactive = flat fitted curve, though single readings scatter. Potencies beside an inconclusive call are fits to weak or partial responses and may not hold up.
target: DNA dC->dU-editing enzyme APOBEC-3G (Homo sapiens) (UniProt Q9HC16); experiment: qHTS for Inhibitors of Vif-A3G Interactions: qHTS; conditions: HeLa A3G-eYFP + Vif (tagged APOBEC3G with the HIV-1 protein that degrades it), YFP fluorescence, overnight; series mostly up to 46.1 µM; also: nearly all actives have a fitted effect of over 60% in size
Procedure, shortened: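 Read-out is eYFP fluorescence (Ex 488/Em 500-530) from Vif-expressing HeLa A3G-eYFP cells; more signal means A3G escaped Vif-mediated degradation. Cells plated overnight, compound pinned in, incubated overnight at 37 deg C.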
Potency is read from the fitted curve at half-maximal effect; tags tell the direction and shape of the fitted curve.

Chain of UniProt Q9HC16 (Q9HC16 whole entry, looked up): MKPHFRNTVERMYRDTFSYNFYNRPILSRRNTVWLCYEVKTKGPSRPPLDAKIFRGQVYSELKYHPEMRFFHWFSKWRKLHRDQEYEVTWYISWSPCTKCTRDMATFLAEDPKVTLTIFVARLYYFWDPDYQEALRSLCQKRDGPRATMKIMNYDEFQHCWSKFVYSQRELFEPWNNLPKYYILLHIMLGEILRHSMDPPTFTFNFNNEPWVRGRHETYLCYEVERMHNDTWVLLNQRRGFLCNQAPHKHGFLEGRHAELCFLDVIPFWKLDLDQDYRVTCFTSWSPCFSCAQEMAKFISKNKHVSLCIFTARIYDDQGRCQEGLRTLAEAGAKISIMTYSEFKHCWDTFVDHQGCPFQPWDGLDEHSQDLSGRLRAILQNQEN

Structure (SMILES)	Potency
CS(=O)(=O)N(CC(=O)Nc1ccc(Br)cc1)C1CCCCC1	inconclusive: 15.8 µM [inhibitor, single point]
CN(C)c1ccc(/C=C/c2ccnc3ccc(I)cc23)cc1	active: 8.91 µM
O=S(=O)(/C=C/C=C/S(=O)(=O)c1ccccc1)c1ccccc1	inconclusive: 3.16 µM [inhibitor, full curve, poor fit]
COc1ccc(-c2nn3c(-c4ccccc4C)nnc3c3ccccc23)cc1	inactive
NNC(=O)c1oc2ccccc2c1-n1cccc1	inconclusive: 7.08 µM [inhibitor, partial curve]
O=C(Nc1nc2c(F)cccc2s1)c1ccc([N+](=O)[O-])o1	inconclusive: 10 µM [inhibitor, partial curve, poor fit]
Cc1cccc(OCCNC(=O)c2ccc(Cl)c(S(=O)(=O)NCc3cccnc3)c2)c1	inconclusive: 2.51 µM [inhibitor, partial curve, poor fit]
CNC[C@H](CC1CCCCC1)NC[C@H](CO)NCCc1cccc(C(F)(F)F)c1	inconclusive: 35.5 µM [inhibitor, partial curve, poor fit]
Fc1ccc2[nH]c3c(N4CCSCC4)ncnc3c2c1	inconclusive: 11.2 µM [inhibitor, single point]
Oc1ccc2[nH]ccc2c1	inactive
COc1cc(OC)cc(C(=O)N/N=C(\C)CC(=O)Nc2ccccn2)c1	active: 3.55 µM
CCOC(=O)C1CCCN(c2c(C(=O)c3ccccc3)cnc3ccc(F)cc23)C1 (stereo unspecified)	inactive
CC(CNC(=O)c1ccc(Cn2c(=O)c3cccn3c3cccnc32)cc1)c1ccccc1 (stereo unspecified)	inactive
Cc1ccc(C)c(N2CCN(C(=O)CCc3nc(-c4ccc(Br)cc4)no3)CC2)c1	inactive
CC(C)Cn1c(N)c(C(=O)COC(=O)c2ccc([N+](=O)[O-])o2)c(=O)n(C)c1=O	inconclusive: 15.8 µM [inhibitor, partial curve, poor fit]
Nc1cc(-c2ccncc2)c[nH]c1=O	inactive
CCOC(=O)c1c(C)[nH]c(C(=O)OCC(O)=C(C#N)c2nc3ccccc3[nH]2)c1C	inconclusive: 28.2 µM [inhibitor, single point]
CCc1ccc(S(=O)(=O)Nc2cc(SCC(=O)O)c(O)c3ccccc23)cc1	inconclusive: 11.2 µM [inhibitor, partial curve, poor fit]
Cc1ccc(OCCCNCCO)c(Br)c1	inactive
Cc1cc(NC(=O)CCCS(=O)(=O)c2nc(-c3cccs3)cc(C(F)(F)F)n2)no1	inconclusive: 15.8 µM [inhibitor, single point]
COc1ccc(CNC(=O)c2sc3nc4n(c(=O)c3c2C)CCCCC4)cc1	inactive
CCN(CC)CCOC(=O)c1ccc(NC(=O)c2cc3c(s2)-c2ccccc2OC3)cc1	inconclusive: 35.5 µM [inhibitor, single point]
CCOc1ccccc1CNC(=O)c1cnc2sc(N(CC)CC)nn2c1=O	inactive
CC1CCCCN1S(=O)(=O)c1ccc(NC(=O)c2cccs2)cc1 (stereo unspecified)	inactive

Structure (SMILES)	Potency
O=C(NCC(c1ccc(F)cc1)N1CCOCC1)c1ccc([N+](=O)[O-])o1 (stereo unspecified)	inconclusive: 22.4 µM [inhibitor, single point]
Cc1ccc(OCCCCN2CCc3ccccc3C2)cc1	inactive
COc1ccccc1-c1cc(NC=O)c2ncc(-c3ccc(S(C)(=O)=O)cc3)n2c1	inconclusive: 3.55 µM [inhibitor, full curve]
O=c1c2sc3ccccc3c2n(Cc2cccc(F)c2)c(=O)n1CCc1ccccc1	inactive
CN(C)c1ccc(-c2nnn(CC(=O)Nc3ccccc3N3CCOCC3)n2)cc1	inactive
Cc1ccnc(NC(=O)Nc2ccc3c(c2)N(C)C(=O)CS3)c1	inconclusive: 10 µM [inhibitor, partial curve]
CCOC(=O)NC(C(Cl)(Cl)Cl)S(=O)(=O)c1ccccc1 (stereo unspecified)	inconclusive: 35.5 µM [inhibitor, single point]
Cc1cc(C)nc(NC(=O)Nc2ccccc2C(F)(F)F)n1	inconclusive: 10 µM [inhibitor, partial curve, poor fit]
Cc1cc(C)c2nc(SCC(=O)N3CC(=O)Nc4ccccc43)c(C#N)cc2c1	inconclusive: 3.16 µM [inhibitor, partial curve, poor fit]
Cc1cccc(CSc2nnc(CCNC(=O)OC(C)(C)C)o2)c1	inactive
CN(C)CC(CCC(CN(C)C)C(=O)c1ccccc1)C(=O)c1ccccc1 (stereo unspecified)	inconclusive: 3.16 µM [inhibitor, partial curve, poor fit]
CSC(=S)NCc1cccnc1	inconclusive: 11.2 µM [inhibitor, partial curve]
Cc1nc2nc(NC(=O)c3ccc(C(C)(C)C)cc3)[nH]n2c(=O)c1C	inactive
COc1cc(C=CC(=O)c2ccccc2)cc(OC)c1OC	inconclusive: 15.8 µM [inhibitor, partial curve, poor fit]
COc1cc(OC)cc(C(=O)NNC(=S)Nc2ccc(S(N)(=O)=O)cc2)c1	inconclusive: 11.2 µM [inhibitor, partial curve, poor fit]
O=C(CSc1nc2c([nH]c3ccccc32)c(=O)n1-c1ccccc1)Nc1ccc2c(c1)OCO2	inactive
CCCNc1c(F)c(F)c2c(C)c3ccccc3nc2c1F	inconclusive: 22.4 µM [inhibitor, partial curve, poor fit]
COC(=O)c1ccc2c(=O)n(CCCCCC(=O)NCCc3ccccc3)c(=O)[nH]c2c1	inactive
CCCCNc1c(-c2ccc(SC3CCCCC3)cc2)nc2cnccn12	active: 3.16 µM
N#C/C(=C\c1cccc(O)c1)c1nc2ccccc2o1	inconclusive: 10 µM [inhibitor, partial curve, poor fit]
CCOc1ccc(-n2c(C)cc(/C=C3/C(=N)N4C(=NC3=O)SN=C4S(C)(=O)=O)c2C)cc1	inactive
Cc1nn(-c2ccc(F)cc2)c2nc(N)c(C#N)c(-c3cccs3)c12	inconclusive: 28.2 µM [inhibitor, single point]
N#Cc1ccccc1OCC(=O)N1CCN(S(=O)(=O)c2ccc(Cl)cc2)CC1	inactive
COc1ccc(S(=O)(=O)Oc2ccc3cccc(N)c3c2)cc1	inconclusive: 10 µM [inhibitor, partial curve, poor fit]

Structure (SMILES)	Potency
CCOc1ccc(NC(=O)c2cc([N+](=O)[O-])ccc2N2CCOCC2)cc1	inconclusive: 17.8 µM [inhibitor, single point]
CC(C)(C)SCCNC(=O)/C=C/c1ccccc1	inactive
Oc1cccnc1SCc1ccccc1	inactive
CCOc1ccc(CN2C(=O)c3ccccc3Sc3ccc(C(=O)O)cc32)cc1	inconclusive: 2 µM [inhibitor, full curve, poor fit]
Cc1cccc(CS(=O)(=O)c2ncc(Cl)c(C(=O)Nc3c(C)cccc3C)n2)c1	inconclusive: 11.2 µM [inhibitor, partial curve]
COc1cc(/C=C2\SC(N)=NC2=O)cc(Cl)c1O	inactive
COc1ccc(N(CC(=O)Nc2cc(Cl)ccc2C)S(=O)(=O)c2c(C)n[nH]c2C)cc1	inconclusive: 3.16 µM [inhibitor, full curve, poor fit]
CCOc1ccccc1N1CCN(c2nc(N)c(C#N)c(CC#N)c2C#N)CC1	inconclusive: 15.8 µM [inhibitor, single point]
CCC1C/C(=C\c2cccnc2)C(=O)/C(=C/c2cccnc2)C1 (stereo unspecified)	inconclusive: 3.55 µM [inhibitor, full curve, poor fit]
COc1ccc(/C=N\NC(=O)c2c(C)nc3ccc(Br)cn23)cc1	inconclusive: 1.12 µM [inhibitor, full curve]
O=S(=O)(Nc1cccc2[nH]ncc12)c1cccs1	inactive
c1ccc2c(c1)OCC(c1nnc3sc(-c4ccc5c(c4)OCO5)nn13)O2 (stereo unspecified)	inactive
CSc1ccc(C2NC(=O)c3ccccc3N2)cc1 (stereo unspecified)	active: 10 µM
Cc1cccc(NC2=C(Cl)C(=O)OC2OC(=O)c2ccco2)c1 (stereo unspecified)	inconclusive: 22.4 µM [inhibitor, single point]
COc1ccc(OC)c(NS(=O)(=O)c2ccc(-c3cc(C)no3)s2)c1	inconclusive: 1 µM [inhibitor, partial curve, poor fit]
Cc1ccc(NC(=O)Cn2ncc(Cl)c(Cl)c2=O)cc1S(=O)(=O)N1CCCCC1	inconclusive: 20 µM [inhibitor, partial curve, poor fit]
C#CCOCCOCCOCCNc1nc(N2CCN(C(=O)CCCCCCCCCCNC(=O)Cn3cc(CCCCCN)nn3)CC2)nc(N2CCN(C(=O)CCCCCCCCCCNC(=O)[C@@H](CCSC)n3cc(CCO)nn3)CC2)n1	inconclusive: 14.1 µM [inhibitor, single point]
CCCCCCCCCCCCCCCC[N+](C)(C)CCl	inactive
COc1cc2c(cc1OC)CN(c1ccc(-c3ccccc3OC)nn1)CC2	inconclusive: 22.4 µM [inhibitor, single point]
CCC(=O)N1CCc2cc(Br)cc(S(=O)(=O)CCC(=O)N3CCN(c4ccccc4F)CC3)c21	inactive
CCOC(=O)c1cccc(NS(=O)(=O)c2ccc(-c3cnc(C4CC4)o3)cc2)c1	inconclusive: 1.26 µM [inhibitor, full curve, poor fit]
CCS(=O)(=O)N1CCC(C(=O)NCCc2ccc(OC)c(OC)c2)CC1	inactive
CCOC(=O)c1ccc(N/C=C/C(=O)C(C)(C)C)cc1	inactive
